{"source": "patent US12479866B2", "about": "“Boron-containing rho kinase inhibitors” (Percipiad, Inc., priority 2019, dated 2025)", "key": {"Phospho-MYPT1 Thr853": {"system": "Phospho-MYPT1 Thr853", "assay": "Inhibition of MYPT1 phosphorylation in human trabecular meshwork (hTM) cells, western blot", "protocol": "The outflow of aqueous humor across the trabecular meshwork (TM) is regulated by, among other factors, actomyosin contraction of the TM cells and altered extracellular matrix. ROCK is known to inhibit the phosphatase activity of myosin light chain phosphatase (MLCP) by phosphorylating MYPT1 at amino acids Thr696 and Thr853. […] Media with inhibitors was suctioned off, wells washed 2 times with cold PBS pH 7.4 buffer, and attached cells were scrapped off with 500 μl (T75 flasks) or 100 μl (6-well plates) SDS-PAGE sample buffer, and collected into 1.5 ml microcentrifuge tubes. • 5.\nTwo days before compound addition 6-well plates were seeded at a density of 75,000 cells/well. On the day of compound addition media was replaced with 3 ml fresh media containing compounds at different concentration. Fifteen hours after compound addition cells in each well were lysed with 0.2 ml extraction buffer (SDS-PAGE sample buffer containing […] and protease inhibitors) and extracts were collected.\nCompounds (10 μM) were added to hTM cells cultured in 60 mm plates and cell extracts collected after […]. Cells were lysed with 0.2 ml lysis buffer and 20 μl extract was loaded in each lane (FIG. 7)."}, "[1]": {"target": "PKA-NanoLuc fusion protein (Homo sapiens (Human), UniProt P17612)", "assay": "PKA-NanoBRET Target Engagement Intracellular Kinase Assay in HEK293 cells", "type": "cell-based", "conditions": "live HEK293 cells, 2 hours; read-out: Estimated IC50, inhibition of NanoBRET tracer binding to PKA", "protocol": "NanoBRET™ TE assay is based on the NanoBRET™ System, an energy transfer technique designed to measure molecular proximity in living cells. The NanoBRET™ TE assay measures the apparent affinity of test compounds by competitive displacement of the NanoBRET™ tracer, reversibly bound to a NanoLuc® luciferase-kinase fusions in cells. Using the NanoBRET™ TE Kinase Assay, a fixed concentration of tracer is added to cells expressing the desired NanoLuc® kinase fusion to generate a BRET signal. […] Centrifuged culture, resuspended cells in fresh culture media, and dispense 85 ul in to wells of 96-well plate. • 3. […] Added 10 μl of 10× serially diluted inhibitor compound per well containing cells with IX NanoBRET Tracer Reagent. Thoroughly mixed plate on an orbital shaker for 15 seconds at 700 rpm. • 5. […] Equilibrated plate to room temperature for ˜15 minutes. • 6. […] Measured donor emission wavelength (450 nm) and acceptor emission wavelength (610 nm) using the GloMax® Discover System (Promega). To generate raw BRET ratio values, divided the acceptor emission value (610 nm) by the donor emission value (450 nm) for each sample."}, "[2]": {"system": "New Zealand White rabbits", "conditions": "0.1 ml, 20 mg/ml in saline", "text": "The right eye that was not treated served as the control. […] The eyes of initial and confirmatory test animals were examined with slit lamp for ocular lesions. […] The animals were also observed for clinical signs of toxicity, morbidity and mortality."}, "HEK293 cells": {"system": "HEK293 cells", "assay": "CellTiter-Glo Luminescent Cell Viability Assay", "conditions": "HEK293 cells, 25, 2.5, or 0.25 μM, two days"}, "hTM cells": {"system": "hTM cells", "assay": "hTM cell morphology changes (microscopy)", "conditions": "10 μM, 20 hours"}, "RSK2": {"target": "RSK2 (Homo sapiens (Human), UniProt P51812)", "assay": "AGC Kinase Selectivity Profiling (ADP-Glo)", "type": "biochemical", "conditions": "1 μM compound; AGC Panel; read-out: Percent enzyme activity inhibition, RSK2", "text": "(§1) ROCK1 (also called ROCK I, ROKβ, Rho-kinase β, or p160ROCK) and ROCK2 ((also known as ROCK II, ROKα, or Rho kinase) belong to AGC family of serine/threonine kinases. The group of AGC kinases consists of 63 evolutionarily related serine/threonine protein kinases comprising PDK1, PKB/Akt, SGK, PKC, PRK/PKN, MSK, RSK, S6K, PKA, PKG, DMPK, MRCK, ROCK, NDR, LATS, CRIK, MAST, GRK, Sgk494, and YANK, while two other families, Aurora and PLK, are the most closely related to the group (Leroux et al., AGC kinases, mechanisms of regulation and innovative drug development, Semin Cancer Biol. 2018 February; 48:1-17)."}, "PRKG1": {"target": "PRKG1 (Homo sapiens (Human), UniProt Q13976)", "assay": "AGC Kinase Selectivity Profiling (ADP-Glo)", "type": "biochemical", "conditions": "1 μM compound; AGC Panel; read-out: Percent enzyme activity inhibition, PRKG1", "text": "as §1"}, "PKCa": {"target": "PKCa (Homo sapiens (Human), UniProt P17252)", "assay": "AGC Kinase Selectivity Profiling (ADP-Glo)", "type": "biochemical", "conditions": "1 μM compound; AGC Panel; read-out: Percent enzyme activity inhibition, PKCa", "text": "as §1"}, "ROCK1": {"target": "ROCK1 (Homo sapiens (Human), UniProt Q13464)", "assay": "AGC Kinase Selectivity Profiling (ADP-Glo)", "type": "biochemical", "conditions": "1 μM compound; AGC Panel", "text": "as §1"}, "PKCb II": {"target": "PKCb II (Homo sapiens (Human), UniProt P05771)", "assay": "AGC Kinase Selectivity Profiling (ADP-Glo)", "type": "biochemical", "conditions": "1 μM compound; AGC Panel; read-out: Percent enzyme activity inhibition, PKCb II", "text": "as §1"}, "ROCK2": {"target": "ROCK2 (Homo sapiens (Human), UniProt O75116)", "assay": "ROCK2 ADP-Glo kinase enzyme inhibition assay", "type": "biochemical", "conditions": "Exp #2", "protocol": "(§2) We measured ROCK and PKA kinase enzyme activity inhibition by compounds using commercially available ROCK1 (Promega Corporation, cat #V9581), ROCK2 (Promega, cat #V4045), and PKA kinase (Promega, cat #V4247) ADP-Glo™ assay kits. ADP-Glo™ Kinase Assay is a luminescent ADP detection assay that provides a homogeneous method to measure kinase activity by quantifying the amount of ADP produced during a kinase reaction. The assay is performed in two steps. First, after the kinase reaction, an equal volume of ADP-Glo™ Reagent is added to terminate the kinase reaction and deplete the remaining ATP. Second, the Kinase Detection Reagent is added to simultaneously convert ADP to ATP and allow the newly synthesized ATP to be measured using a luciferase/luciferin reaction. The light generated is measured using a luminometer. A complete protocol is included with the kits and is also available at the Promega website. The assay is briefly described below. • 1. Diluted enzyme, substrate, ATP, and compounds (inhibitors) in Kinase Buffer (40 mM Tris, 7.5, 20 mM MgCl2, 0.1 mg/ml BSA, 50 μM DTT). • 2. […]\n(§3) Recorded luminescence (Integration time 1 second) using a plate-based luminometer.\n(§4) Calculated Percent Enzyme Activity: First subtract the signal of the negative control (no enzyme and no inhibitor) from each sample's signal. […]"}, "PKA": {"target": "PKA (Homo sapiens (Human), UniProt P17612)", "assay": "PKA ADP-Glo kinase enzyme inhibition assay", "type": "biochemical", "conditions": "read-out: PKAIC50", "protocol": "as §2, §3, §4"}}, "data": [{"smiles": "O=S(=O)(c1cccc2cnccc12)N1CCCNCC1", "note": "[Fasudil]", "values": [{"measurement": "Inhibition of MYPT1 phosphorylation (western blot)", "setting": "Phospho-MYPT1 Thr853; 10 μM, 24 hours", "value": "did not inhibit MYP2 phosphorylation"}]}, {"smiles": "Cl.Cl.NCC(C(=O)Nc1ccc2cnccc2c1)c1ccc(CO)cc1", "note": "(racemic) [Netarsudil-M1-racemate.2HCl]", "values": [{"measurement": "IC50", "setting": "[1]", "value": 360, "unit": "nM"}, {"measurement": "Inhibition of MYPT1 Thr853 phosphorylation (western blot)", "setting": "Phospho-MYPT1 Thr853; 2.5 μM inhibitors", "value": "inhibited phosphorylation of MYPT1"}, {"measurement": "Inhibition of MYPT1 Thr853 phosphorylation (western blot)", "setting": "Phospho-MYPT1 Thr853; 10 μM inhibitors, 7 hours", "value": "completely inhibited MYPT1 phosphorylation"}, {"measurement": "clinical signs of toxicity, morbidity and mortality", "setting": "[2]", "value": "No treatment-related adverse effects were noticed"}, {"measurement": "Cell viability (ATP amount)", "setting": "HEK293 cells", "value": "inhibited cell growth only at 25 μM concentration"}, {"measurement": "hTM cell morphology", "setting": "hTM cells", "value": "appeared slightly contracted"}]}, {"smiles": "Cl.Cl.NCC(C(=O)Nc1ccc2cnccc2c1)c1ccc(B(O)O)cc1", "note": "(stereo not shown) [Compound 10•2HCl]", "values": [{"measurement": "Inhibition of MYPT1 Thr853 phosphorylation (western blot)", "setting": "Phospho-MYPT1 Thr853; 2.5 μM inhibitors", "value": "inhibited phosphorylation of MYPT1"}, {"measurement": "Inhibition of MYPT1 Thr853 phosphorylation (western blot)", "setting": "Phospho-MYPT1 Thr853; 10 μM inhibitors, 7 hours", "value": "completely inhibited MYPT1 phosphorylation"}]}, {"smiles": "Cc1ccc(C(=O)OCc2ccc([C@@H](CN)C(=O)Nc3ccc4cnccc4c3)cc2)c(C)c1.Cl.Cl", "note": "[Netarsudil•2HCl, Netarsudil, reference compound]", "values": [{"measurement": "inhibition at 1 µM", "setting": "RSK2", "value": 65, "unit": "%"}, {"measurement": "inhibition at 1 µM", "setting": "PRKG1", "value": 82, "unit": "%"}, {"measurement": "inhibition at 1 µM", "setting": "PKCa", "value": 65, "unit": "%"}, {"measurement": "Percent enzyme activity inhibition, ROCK1", "setting": "ROCK1", "value": 88, "unit": "%"}, {"measurement": "inhibition at 1 µM", "setting": "PKCb II", "value": 45, "unit": "%"}]}, {"smiles": "C[C@H]1CNCCCN1S(=O)(=O)c1cccc2cncc(F)c12", "note": "[Ripasudil, reference compound]", "values": [{"measurement": "IC50", "setting": "ROCK2", "value": 90, "unit": "nM"}, {"measurement": "IC50", "setting": "PKA", "value": "> 1000", "unit": "nM"}]}]}
